Measurements from publication PMC4251979.
Numbering of substitutions follows the chain as printed. No constants are given. Whether binding was seen depends on the method and setting. Binding seen in cells or lysates may run through a third protein. Some binding calls cover weakened binding; strength is not graded here. Where a sequence is shown, tags or fusion partners need not be part of it.

Protein sequences, listed by entry. Tags and fused reporters are not part of them.
UniProt Q8IY92: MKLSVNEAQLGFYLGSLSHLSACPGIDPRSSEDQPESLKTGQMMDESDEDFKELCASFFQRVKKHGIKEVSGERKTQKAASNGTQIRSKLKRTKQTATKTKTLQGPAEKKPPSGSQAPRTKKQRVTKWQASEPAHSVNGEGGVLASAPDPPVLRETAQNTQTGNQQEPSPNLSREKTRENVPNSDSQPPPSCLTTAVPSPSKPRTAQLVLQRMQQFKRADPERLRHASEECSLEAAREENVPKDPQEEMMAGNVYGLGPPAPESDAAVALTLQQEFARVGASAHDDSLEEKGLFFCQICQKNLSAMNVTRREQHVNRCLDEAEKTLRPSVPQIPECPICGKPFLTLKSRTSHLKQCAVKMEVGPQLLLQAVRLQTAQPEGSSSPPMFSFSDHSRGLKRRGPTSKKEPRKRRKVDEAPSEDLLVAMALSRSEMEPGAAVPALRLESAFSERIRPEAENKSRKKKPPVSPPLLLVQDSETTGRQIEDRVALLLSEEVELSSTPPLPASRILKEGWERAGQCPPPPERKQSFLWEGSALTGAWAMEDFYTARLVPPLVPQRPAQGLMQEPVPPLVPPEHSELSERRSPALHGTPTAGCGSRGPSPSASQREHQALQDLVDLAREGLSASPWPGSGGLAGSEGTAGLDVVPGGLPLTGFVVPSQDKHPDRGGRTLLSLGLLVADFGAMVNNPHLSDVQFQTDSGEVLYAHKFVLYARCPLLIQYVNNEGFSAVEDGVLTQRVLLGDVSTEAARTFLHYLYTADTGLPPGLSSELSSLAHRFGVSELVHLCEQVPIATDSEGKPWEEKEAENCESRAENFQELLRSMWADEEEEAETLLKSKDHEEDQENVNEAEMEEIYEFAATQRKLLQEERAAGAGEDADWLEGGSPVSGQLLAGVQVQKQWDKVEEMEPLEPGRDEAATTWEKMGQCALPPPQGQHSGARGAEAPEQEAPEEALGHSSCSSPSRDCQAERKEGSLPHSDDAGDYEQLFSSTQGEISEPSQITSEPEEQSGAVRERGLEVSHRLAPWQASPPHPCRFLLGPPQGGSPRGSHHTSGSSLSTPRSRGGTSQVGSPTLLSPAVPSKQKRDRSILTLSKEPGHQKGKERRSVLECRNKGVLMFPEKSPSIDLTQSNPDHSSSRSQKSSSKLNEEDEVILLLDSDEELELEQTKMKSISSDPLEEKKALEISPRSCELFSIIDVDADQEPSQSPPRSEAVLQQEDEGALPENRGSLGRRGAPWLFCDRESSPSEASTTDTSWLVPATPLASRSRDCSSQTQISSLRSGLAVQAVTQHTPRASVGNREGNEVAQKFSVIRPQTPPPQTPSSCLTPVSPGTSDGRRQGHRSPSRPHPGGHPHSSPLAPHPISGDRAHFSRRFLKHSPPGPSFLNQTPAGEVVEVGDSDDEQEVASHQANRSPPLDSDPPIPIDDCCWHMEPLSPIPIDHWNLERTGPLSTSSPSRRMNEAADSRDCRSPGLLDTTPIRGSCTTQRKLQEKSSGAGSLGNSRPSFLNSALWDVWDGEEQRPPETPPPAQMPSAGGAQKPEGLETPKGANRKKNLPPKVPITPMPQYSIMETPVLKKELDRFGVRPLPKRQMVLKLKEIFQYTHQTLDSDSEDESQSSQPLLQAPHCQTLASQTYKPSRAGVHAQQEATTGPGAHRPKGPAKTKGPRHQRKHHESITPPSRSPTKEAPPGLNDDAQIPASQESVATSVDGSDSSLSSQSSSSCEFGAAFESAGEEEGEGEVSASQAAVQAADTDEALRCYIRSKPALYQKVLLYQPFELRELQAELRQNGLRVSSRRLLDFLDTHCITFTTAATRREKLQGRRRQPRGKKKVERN

What was measured:
Assay in all cases: co-IP; HEK293 cells transiently transfected with FLAG-MUS81 (wild type or mutants); extracts immunoprecipitated with anti-FLAG (FLAG-M2 agarose beads), western blotting
[1] = target: T1, FLAG-MUS81 wild-type (human) (UniProt Q96NY9)
T1 sequence: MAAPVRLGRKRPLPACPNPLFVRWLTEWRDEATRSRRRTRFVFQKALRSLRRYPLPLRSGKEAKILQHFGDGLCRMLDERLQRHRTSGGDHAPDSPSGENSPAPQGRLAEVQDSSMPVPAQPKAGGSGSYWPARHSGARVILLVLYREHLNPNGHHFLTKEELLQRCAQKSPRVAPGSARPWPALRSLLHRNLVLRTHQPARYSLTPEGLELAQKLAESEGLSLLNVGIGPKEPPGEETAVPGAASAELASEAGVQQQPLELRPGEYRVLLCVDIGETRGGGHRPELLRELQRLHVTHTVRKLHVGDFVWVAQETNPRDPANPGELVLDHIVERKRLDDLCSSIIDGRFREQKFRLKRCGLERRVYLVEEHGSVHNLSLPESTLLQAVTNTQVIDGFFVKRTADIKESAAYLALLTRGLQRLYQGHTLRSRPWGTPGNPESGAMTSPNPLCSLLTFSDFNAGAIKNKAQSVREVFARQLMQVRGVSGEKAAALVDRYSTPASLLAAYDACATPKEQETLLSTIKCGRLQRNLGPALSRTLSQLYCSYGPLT

[2] = target: T2, FLAG-MUS81 L66A Q67A (human) (UniProt Q96NY9)
T2 sequence: T1 sequence with L66A, Q67A

[3] = target: T3, full-length FLAG-MUS81 L47K (human) (UniProt Q96NY9)
T3 sequence: T1 sequence with L47K

binding [1]: binds
binding [2]: no binding
binding [3]: no binding
Substance: endogenous SLX4 (human cells) (from UniProt Q8IY92 1-1834)
